Data as given in PubChem BioAssay AID488969 (Vanderbilt High Throughput Screening Facility, 2010).
The full ranking holds about 110,000 compounds; the median of “z-score” is about -0.1, and the highest 2% start at about 2. This is one part of the list. The source made the active and inactive calls.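 The calls were made as follows: active = z-score in the third read window above 3 or below -3; inactive = the rest.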

target: Metabotropic glutamate receptor 8 (Rattus norvegicus) (UniProt P70579); test: mGluR8 Gi/Go-coupled signaling modulation – cell-based, rat, thallium flux, HTS, primary screen (AID 488969); conditions: HEK293 rat mGluR8, GIRK (G protein-gated inwardly rectifying potassium channel) thallium flux, FluoZin2; at 10 µM; stronger effect = higher value; submaximal glutamate (EC20) added with thallium
Sequence of UniProt P70579 (P70579 whole entry, looked up): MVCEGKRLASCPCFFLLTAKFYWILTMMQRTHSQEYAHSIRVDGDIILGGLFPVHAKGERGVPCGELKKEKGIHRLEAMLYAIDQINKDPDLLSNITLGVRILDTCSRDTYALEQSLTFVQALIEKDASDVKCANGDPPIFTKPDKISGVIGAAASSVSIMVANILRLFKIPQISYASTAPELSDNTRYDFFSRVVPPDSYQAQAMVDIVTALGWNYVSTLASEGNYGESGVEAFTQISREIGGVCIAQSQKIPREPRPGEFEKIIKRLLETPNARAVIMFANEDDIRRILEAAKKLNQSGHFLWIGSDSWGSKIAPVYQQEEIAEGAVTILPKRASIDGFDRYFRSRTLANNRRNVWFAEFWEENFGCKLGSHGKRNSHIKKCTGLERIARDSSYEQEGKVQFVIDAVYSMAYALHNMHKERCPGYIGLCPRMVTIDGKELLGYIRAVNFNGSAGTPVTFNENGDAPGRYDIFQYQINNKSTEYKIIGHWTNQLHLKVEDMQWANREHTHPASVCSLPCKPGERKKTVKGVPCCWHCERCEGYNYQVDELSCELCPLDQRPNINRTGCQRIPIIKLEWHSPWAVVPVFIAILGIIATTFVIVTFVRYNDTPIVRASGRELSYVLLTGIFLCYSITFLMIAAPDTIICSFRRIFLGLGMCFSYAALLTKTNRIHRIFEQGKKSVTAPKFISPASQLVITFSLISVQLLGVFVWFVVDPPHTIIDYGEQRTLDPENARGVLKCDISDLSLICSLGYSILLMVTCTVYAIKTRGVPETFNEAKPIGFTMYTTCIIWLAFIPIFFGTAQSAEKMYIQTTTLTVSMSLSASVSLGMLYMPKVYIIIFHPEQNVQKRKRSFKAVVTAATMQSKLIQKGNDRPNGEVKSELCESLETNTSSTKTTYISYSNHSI

Question: With `CNC(=O)NC(=O)CSc1ccc(NC(C)=O)cc1` as the molecule, how does the z-score read?
Answer: Its z-score is -1.2.

Question: Which z-score does the source give for `O=C(c1cc(N2C(=O)C3C4CCC(C4)C3C2=O)ccc1Cl)N1CCN(c2ccc(F)cc2)CC1` (centres undefined) here?
Answer: Its z-score is -0.422.

Question: How did the z-score turn out when `O=c1[nH]c2cnccc2n1-c1ccccc1` was run?
Answer: Its z-score is 0.17.

Question: How did the z-score turn out when `O=C(O)C1CCC(=O)N(C2CCCCC2)C1c1ccccc1` (centres undefined) was run?
Answer: The z-score was 0.373.

Question: Which z-score does the source give for `COC(=O)CSc1nc2sc3c(c2c(=O)n1C1CCCCC1)CCN(C)C3` here?
Answer: The z-score was -0.562.

Question: Which z-score does the source give for `O=C(COC(=O)c1ccc(-c2cnc3ccccc3n2)cc1)c1ccccc1` here?
Answer: Its z-score is -0.0971.

Question: How did the z-score turn out when `COCCNC(=O)Cc1cn(C)c2ccccc12` was run?
Answer: The z-score was -0.27.

Question: For `Cc1c(C#N)c2ccccc2n1CC(=O)NCCc1c[nH]c2ccccc12`, which z-score is on record?
Answer: The z-score was -0.0655.

Question: Which z-score does the source give for `COc1ccc(C)cc1NC(=O)CCS(=O)(=O)c1cccc2nonc12` here?
Answer: The z-score was 0.142.

Question: For `Cc1ccc(S(=O)(=O)N2CCCC2)cc1S(=O)(=O)N1CCCC1`, which z-score is on record?
Answer: The z-score was 0.281.

Question: For `c1ccc2c(c1)oc1c(N3CCOCC3)ncnc12`, which z-score is on record?
Answer: The z-score was 0.0592.

Question: How did the z-score turn out when `Fc1ccccc1Cc1nnc2n1N=C(c1ccc(Cl)cc1)CS2` was run?
Answer: The z-score was -0.15.

Question: Which z-score does the source give for `CCc1ccc(-n2c(CSc3nnnn3-c3ccccc3)nc3ccccc3c2=O)cc1` here?
Answer: Its z-score is -0.169.

Question: Which z-score does the source give for `CSCCC(NC(=O)C1CCC(C)CC1)C(=O)N1CCN(c2ccccn2)CC1` (centres undefined) here?
Answer: Its z-score is -0.488.

Question: Which z-score does the source give for `Cc1ccccc1Cn1cc(NC(=O)c2cc(-c3cccs3)on2)cn1` here?
Answer: Its z-score is -0.0761.

Question: With `O=C(Nc1cccc(-c2nc3ccccc3[nH]2)c1)c1cccc(NC(=O)c2ccco2)c1` as the molecule, how does the z-score read?
Answer: The z-score was 0.28.

Question: `COc1ccc(OC)c(-n2c(SCC(=O)Nc3cc(C)on3)nnc2-c2c[nH]c3ccccc23)c1` was tested. Which z-score did it give?
Answer: The z-score was -0.76.

Question: Which z-score does the source give for `CC(C)CC(=O)N=C1SC2CS(=O)(=O)CC2N1Cc1ccccc1` (centres undefined) here?
Answer: Its z-score is -0.23.

Question: Which z-score does the source give for `Cn1c2ccc(F)cc2c2ncn(Cc3ccco3)c(=O)c21` here?
Answer: The z-score was -0.587.

Question: With `CCOC(=O)N1CCC(NC(=O)c2ccc3c(c2)ncn3C2CCCC2)CC1` as the molecule, how does the z-score read?
Answer: Its z-score is 0.215.

Question: For `Cc1ccc(Cn2c(Cc3ccccc3)nc3ccccc32)cc1`, which z-score is on record?
Answer: The z-score was -0.439.

Question: With `Brc1cnc(N2CCCC2)nc1N1CCOCC1` as the molecule, how does the z-score read?
Answer: The z-score was -0.191.

Question: `COc1cccc(-c2noc(Cn3nc(C)c([N+](=O)[O-])c3C)n2)c1` was tested. Which z-score did it give?
Answer: Its z-score is -0.544.

Question: For `CCOC(=O)c1sc(NC(=O)COC(=O)CNC(=O)c2ccco2)c(C(=O)OCC)c1C`, which z-score is on record?
Answer: Its z-score is 0.493.

Question: Which z-score does the source give for `O=C(c1ccc(Cl)c(Cl)c1)N(Cc1ccco1)c1ccc(O)cc1` here?
Answer: Its z-score is -0.147.

Question: Which z-score does the source give for `Cc1ccc(N=Nc2c(N)[nH]n3c(=O)cc(-c4ccccc4)nc23)cc1` here?
Answer: Its z-score is 0.281.

Question: With `O=C(CSc1oc(-c2ccco2)nc1S(=O)(=O)c1ccccc1)NCC1CCCO1` (centres undefined) as the molecule, how does the z-score read?
Answer: Its z-score is 0.249.

Question: How did the z-score turn out when `O=C(CN1C(=O)c2ccccc2C1=O)Nc1sc2c(c1C(=O)NCc1ccco1)CCCC2` was run?
Answer: The z-score was -0.0489.

Question: How did the z-score turn out when `N#Cc1cnn(Cc2ccccc2)c1/N=C/N1CCOCC1` was run?
Answer: Its z-score is -0.00615.

Question: For `O=C(CSCc1ccc([N+](=O)[O-])cc1)NCCSCc1ccccc1`, which z-score is on record?
Answer: The z-score was -0.153.

Question: For `Cc1ccc(NC(=O)CSC(N)=O)cc1Cl`, which z-score is on record?
Answer: Its z-score is active: 5.44.

Question: `c1ccc2ncc(-n3cnnn3)cc2c1` was tested. Which z-score did it give?
Answer: The z-score was -0.189.

Question: How did the z-score turn out when `COc1ccc2c(Cl)c(C(=O)NCc3ccco3)sc2c1` was run?
Answer: The z-score was -0.373.

Question: `Cc1cnc(C(=O)OCC(=O)NC(C)C)cn1` was tested. Which z-score did it give?
Answer: The z-score was -0.327.

Question: How did the z-score turn out when `Cc1sc2ncnc(N3CCC(C)CC3)c2c1C` was run?
Answer: Its z-score is -0.258.

Question: For `COc1ccccc1/C=C/C=N/n1c(C2CCCCC2)n[nH]c1=S`, which z-score is on record?
Answer: The z-score was -0.154.

Question: `O=C(Nc1ccc2cn[nH]c2c1)c1c(Cl)cccc1Cl` was tested. Which z-score did it give?
Answer: The z-score was -0.0906.

Question: For `O=C(CNC(=O)c1ccc(N2C(=O)c3ccccc3C2=O)cc1)OCC(=O)c1ccccc1`, which z-score is on record?
Answer: Its z-score is -0.0932.

Question: Which z-score does the source give for `COc1ccc(N(CC(=O)Nc2ccc(OC)c(Cl)c2)S(=O)(=O)c2c(C)noc2C)cc1` here?
Answer: Its z-score is -0.546.

Question: How did the z-score turn out when `CCOc1ccc(NC(=O)Cn2c(=O)oc3ccccc32)cc1` was run?
Answer: The z-score was 0.142.

Question: With `CC(=O)c1cccc(NC(=O)c2ccc(N(Cc3ccccc3C)S(C)(=O)=O)cc2)c1` as the molecule, how does the z-score read?
Answer: Its z-score is -0.278.

Question: With `CCOc1ccc(C(=O)Nc2cc(-c3nc4ccccc4[nH]3)ccc2Cl)cc1[N+](=O)[O-]` as the molecule, how does the z-score read?
Answer: Its z-score is -0.393.

Question: Which z-score does the source give for `Cc1nc2cc(Cl)ccc2n1-c1ccccc1` here?
Answer: Its z-score is -0.335.

Question: Which z-score does the source give for `COc1ccc(OC)c(S(=O)(=O)Nc2ccccc2C(=O)O)c1` here?
Answer: The z-score was 0.923.

Question: Which z-score does the source give for `COc1cccc(OCC(=O)NNC(=O)c2cccs2)c1` here?
Answer: Its z-score is -0.15.

Question: For `CC1(c2cc([N+](=O)[O-])cc([N+](=O)[O-])c2)CC(C)(C)N(C(=O)c2ccccc2)c2ccccc21` (centres undefined), which z-score is on record?
Answer: Its z-score is -1.6.

Question: For `CN(CCOc1ccccc1)S(=O)(=O)c1ccc2oc3ccccc3c2c1`, which z-score is on record?
Answer: Its z-score is -0.0134.

Question: `CC1=CC(C)(C)N2C(=O)C3(SCC(=O)N3c3ccc(F)cc3)c3cc(C)cc1c32` (centres undefined) was tested. Which z-score did it give?
Answer: Its z-score is 0.536.

Question: With `CN1CCN(C(=S)Nc2ccc(Cl)cc2Cl)CC1` as the molecule, how does the z-score read?
Answer: Its z-score is -0.00982.

Question: How did the z-score turn out when `O=C(Cn1cnc2c(cnn2-c2ccc(F)cc2)c1=O)N1CCN(c2ccccc2)CC1` was run?
Answer: Its z-score is -0.442.

Question: Which z-score does the source give for `COC(=O)CC1COc2ccccc2N1C(=O)c1ccc(Cl)cc1` (centres undefined) here?
Answer: Its z-score is -0.235.

Question: With `CC(=O)c1c(O)cc(=O)n(-c2ccccc2)c1-c1ccc(Cl)cc1` as the molecule, how does the z-score read?
Answer: Its z-score is 0.0305.

Question: With `O=C(ONC1=NCCCCC1)c1c(F)cccc1F` as the molecule, how does the z-score read?
Answer: Its z-score is -0.673.

Question: For `Cc1ccc(C(=O)C(OC(=O)COc2ccccc2C)c2ccccc2)cc1` (centres undefined), which z-score is on record?
Answer: Its z-score is -0.167.

Question: For `O=C1N/C(=N\N=C\c2ccccn2)SC1Cc1cccc(SC(F)F)c1` (centres undefined), which z-score is on record?
Answer: Its z-score is -0.22.

Question: Which z-score does the source give for `CCc1ccccc1NC(=O)N1CCC(NC(=O)C(Cc2ccc(OC)c(OC)c2)NC(C)=O)CC1` (centres undefined) here?
Answer: The z-score was 0.0816.

Question: For `Cc1cc(C)c2cc(C#N)c(NCCOC(=O)c3ccccc3C)nc2c1`, which z-score is on record?
Answer: Its z-score is -0.161.

Question: With `COc1ccc(N(C(=O)c2ccc(Br)o2)C2C=CS(=O)(=O)C2)cc1` (centres undefined) as the molecule, how does the z-score read?
Answer: The z-score was 0.297.

Question: `CCn1c(SCc2c(Cl)cccc2Cl)nnc1-c1nn(-c2ccccc2)ccc1=O` was tested. Which z-score did it give?
Answer: Its z-score is -1.26.

Question: With `Clc1ccc(-c2n[nH]c3c2CCC3)c(Cl)c1` as the molecule, how does the z-score read?
Answer: Its z-score is 0.0993.

Question: Which z-score does the source give for `COC(=O)c1cc(NC(=O)CN2CCC(C(N)=O)(N3CCCCC3)CC2)cc(C(=O)OC)c1` here?
Answer: The z-score was -0.587.

Question: For `Cc1nn(Cc2ccc(Br)cc2)c(C)c1NC(=O)c1nn(C)cc1Cl`, which z-score is on record?
Answer: Its z-score is -0.296.

Question: `C/C(=C1/C(=O)N(c2ccc([N+](=O)[O-])cc2)N=C1c1ccccc1)N(C)C` was tested. Which z-score did it give?
Answer: Its z-score is -0.0791.

Question: How did the z-score turn out when `CC1(NC(=O)c2cc(S(=O)(=O)N3CCCCC3)ccc2Cl)CCS(=O)(=O)C1` (centres undefined) was run?
Answer: Its z-score is -0.0681.

Question: `CCn1cc(/C=N\NC(=O)c2ccc3c(c2)c(C)c(C)n3Cc2ccccc2)c(C)n1` was tested. Which z-score did it give?
Answer: The z-score was -0.848.

Question: How did the z-score turn out when `Cc1cc(C)nc(NC(=O)CSc2nnnn2-c2ccccc2)n1` was run?
Answer: Its z-score is 0.708.

Question: `CCOc1ccc(Nc2nc(Cc3nnc(SCC(=O)NC4CCCC4)n3C)cs2)cc1` was tested. Which z-score did it give?
Answer: Its z-score is -0.424.

Question: For `CCOCC(=O)Nc1cccc(Br)c1`, which z-score is on record?
Answer: The z-score was -0.00322.

Question: With `N#C/C(=N\Nc1ccccc1F)C(=N)N1CCCCC1` as the molecule, how does the z-score read?
Answer: Its z-score is 0.0493.
